Data as given in patent publication US20090291088A1, “THERAPEUTIC COMBINATIONS OF ANTI-IGF-1R ANTIBODIES AND OTHER COMPOUNDS” (Biogen Idec MA Inc., priority 2008, published 2009).

Tests used:
[1] = system: IGF-1R expressed on the cynomolgus fibroblast cell line; assay: FACS binding to cynomolgus fibroblast cell line; set-up: species or system cynomolgus macaque; conditions: biotinylated antibody
Description: The fibroblast cell line was generated from a skin biopsy. […] After washing the cells, streptavidin-PE was added and incubated for additional 30 minutes at 4° C. in the dark. The cells were then washed and 200 ul cold PBS was added followed by fixation with 1% formaldehyde and gentle vortexing. Antibody binding was assessed by FACS analysis.

[2] = system: human tumor lines (H-23, Calu-6, BxPc-3, Panc-1, MiaPaCa, Colo205); assay: In vitro growth of lung, pancreas and colon tumor cell lines in medium supplemented with IGF-1 or IGF-2; type: cell-based
Description: NCI-H23, Calu-6, Colo-205, Panc-1, BxPC-3 (ATCC) tumor lines were purchased from ATCC. Cell lines were grown in complete growth medium containing RPMI-1640 (ATCC), 10% fetal bovine serum (Irvine Scientific Inc.) and 50 μg/ml of Gentamycin (Gibco, Invitrogen). Trypsin-EDTA solution (Sigma) was used for removal of adherent cells from culture vessels. Phosphate buffered saline, pH 7.2, was from MediaTech Inc The 96-well clear bottom plates for luminescent assay was purchased from Wallac Inc.
Cells grown to 80% monolayers were, trypsinized, washed, resuspended and plated into 96-well plates in 200 μl of 2% growth medium at 8×10^3 cells/well for NCI-H23 and Colo-205 cells; and 5×10^3 cells/well for Calu-6, Panc-1 and BxPC-3 cells. After 24 hours, the culture medium was replaced with 100 μl of serum free medium (SFM), and 50 μl of serially diluted antibodies at 4× concentration was added. […] All treatments were done in triplicates. Cell growth was measured using the CELL TITER-GLO™ Luminescent Cell Viability Assay (Promega, Madison, Wis.). The 1:1 mixture of reagent and SFM was added at 200 μl/well. Luminescence was detected on Wallac (Boston, Mass.) plate reader.
The ability of the selected murine antibodies to inhibit IGF/IGF-1R dependent in vitro growth of several human tumor lines (Lung, H-23, Calu-6; Pancreas, BxPc-3, Panc-1, MiaPaCa and Colon Colo205) was measured by a proliferation assay described in Example 13.

B1: M13-C06.G4.P.agly: full-length hinge-modified aglycosylated human gamma 4, kappa antibody with the binding domain of Fab M13-C06 (antibody)
heavy: EVQLLESGGGLVQPGGSLRLSCAASGFTFSIYRMQWVRQAPGKGLEWVSGISPSGGTTWYADSVKGRFTISRDNSKNTLYLQMNSLRAEDTAVYYCARWSGGSGYAFDIWGQGTMVTVSSASTKGPSVFPLAPCSRSTSESTAALGCLVKDYFPEPVTVSWNSGALTSGVHTFPAVLQSSGLYSLSSVVTVPSSSLGTKTYTCNVDHKPSNTKVDKRV[human IgG4 Fc with S228P T299A (EU numbers) not written out]
light: DIQMTQSPLSLSASVGDRVTITCQASRDIRNYLNWYQQKPGKAPKLLIYDASSLQTGVPSRFGGSGSGTDFSFTIGSLQPEDIATYYCQQFDSLPHTFGQGTKLEIKRTVAAPSVFIFPPSDEQLKSGTASVVCLLNNFYPREAKVQWKVDNALQSGNSQESVTEQDSKDSTYSLSSTLTLSKADYEKHKVYACEVTHQGLSSPVTKSFNRGEC
binding to cynomolgus fibroblast cell line [1]: concentration dependent manner
percent growth inhibition ([2]; A549 (Lung), IGF-1 in Media, 0.1 nM antibody): 39%
percent growth inhibition ([2]; A549 (Lung), IGF-1 in Media, 1 nM antibody): 58%
percent growth inhibition ([2]; A549 (Lung), IGF-1 in Media, 10 nM antibody): 79%
percent growth inhibition ([2]; A549 (Lung), IGF-1 in Media, 100 nM antibody): 87%
percent growth inhibition ([2]; A549 (Lung), IGF-2 in Media, 0.1 nM antibody): 37%
percent growth inhibition ([2]; A549 (Lung), IGF-2 in Media, 1 nM antibody): 61%
percent growth inhibition ([2]; A549 (Lung), IGF-2 in Media, 10 nM antibody): 76%
percent growth inhibition ([2]; A549 (Lung), IGF-2 in Media, 100 nM antibody): 85%
percent growth inhibition ([2]; BXPC3 (Pancreas), IGF-1 in Media, 0.1 nM antibody): 12%
percent growth inhibition ([2]; BXPC3 (Pancreas), IGF-1 in Media, 1 nM antibody): 34%
percent growth inhibition ([2]; BXPC3 (Pancreas), IGF-1 in Media, 10 nM antibody): 54%
percent growth inhibition ([2]; BXPC3 (Pancreas), IGF-1 in Media, 100 nM antibody): 82%
percent growth inhibition ([2]; BXPC3 (Pancreas), IGF-2 in Media, 0.1 nM antibody): 63%
percent growth inhibition ([2]; BXPC3 (Pancreas), IGF-2 in Media, 1 nM antibody): 79%
percent growth inhibition ([2]; BXPC3 (Pancreas), IGF-2 in Media, 10 nM antibody): 96%
percent growth inhibition ([2]; BXPC3 (Pancreas), IGF-2 in Media, 100 nM antibody): 99%
percent growth inhibition ([2]; Calu-6 (Lung), IGF-1 in Media, 0.1 nM antibody): 12%
percent growth inhibition ([2]; Calu-6 (Lung), IGF-1 in Media, 1 nM antibody): 15%
percent growth inhibition ([2]; Calu-6 (Lung), IGF-1 in Media, 10 nM antibody): 19%
percent growth inhibition ([2]; Calu-6 (Lung), IGF-1 in Media, 100 nM antibody): 53%
percent growth inhibition ([2]; Calu-6 (Lung), IGF-2 in Media, 0.1 nM antibody): −4%
percent growth inhibition ([2]; Calu-6 (Lung), IGF-2 in Media, 1 nM antibody): 16%
percent growth inhibition ([2]; Calu-6 (Lung), IGF-2 in Media, 10 nM antibody): 27%
percent growth inhibition ([2]; Calu-6 (Lung), IGF-2 in Media, 100 nM antibody): 62%
percent growth inhibition ([2]; Capan-1 (Pancreas), IGF-1 in Media, 1 nM antibody): 0%
percent growth inhibition ([2]; Capan-1 (Pancreas), IGF-1 in Media, 10 nM antibody): 20%
percent growth inhibition ([2]; Capan-1 (Pancreas), IGF-1 in Media, 100 nM antibody): 17%
percent growth inhibition ([2]; Capan-1 (Pancreas), IGF-2 in Media, 0.1 nM antibody): 19%
percent growth inhibition ([2]; Capan-1 (Pancreas), IGF-2 in Media, 1 nM antibody): 12%
percent growth inhibition ([2]; Capan-1 (Pancreas), IGF-2 in Media, 10 nM antibody): 12%
percent growth inhibition ([2]; Capan-1 (Pancreas), IGF-2 in Media, 100 nM antibody): 31%
percent growth inhibition ([2]; Capan-2 (Pancreas), IGF-1 in Media, 0.1 nM antibody): 14%
percent growth inhibition ([2]; Capan-2 (Pancreas), IGF-1 in Media, 1 nM antibody): 22%
percent growth inhibition ([2]; Capan-2 (Pancreas), IGF-1 in Media, 10 nM antibody): 36%
percent growth inhibition ([2]; Capan-2 (Pancreas), IGF-1 in Media, 100 nM antibody): 49%
percent growth inhibition ([2]; Colo 205 (Colon), IGF-1 in Media, 0.1 nM antibody): 15%
percent growth inhibition ([2]; Colo 205 (Colon), IGF-1 in Media, 1 nM antibody): 37%
percent growth inhibition ([2]; Colo 205 (Colon), IGF-1 in Media, 10 nM antibody): 56%
percent growth inhibition ([2]; Colo 205 (Colon), IGF-1 in Media, 100 nM antibody): 76%
percent growth inhibition ([2]; Colo 205 (Colon), IGF-2 in Media, 0.1 nM antibody): 18%
percent growth inhibition ([2]; Colo 205 (Colon), IGF-2 in Media, 1 nM antibody): 30%
percent growth inhibition ([2]; Colo 205 (Colon), IGF-2 in Media, 10 nM antibody): 45%
percent growth inhibition ([2]; NCI-H23 (Lung), IGF-1 in Media, 0.1 nM antibody): 12%
percent growth inhibition ([2]; NCI-H23 (Lung), IGF-1 in Media, 1 nM antibody): 32%
percent growth inhibition ([2]; NCI-H23 (Lung), IGF-1 in Media, 10 nM antibody): 61%
percent growth inhibition ([2]; NCI-H23 (Lung), IGF-1 in Media, 100 nM antibody): 84%
percent growth inhibition ([2]; NCI-H23 (Lung), IGF-2 in Media, 1 nM antibody): 32%
percent growth inhibition ([2]; NCI-H23 (Lung), IGF-2 in Media, 10 nM antibody): 61%
percent growth inhibition ([2]; NCI-H23 (Lung), IGF-2 in Media, 100 nM antibody): 85%
percent growth inhibition ([2]; Panc-1 (Pancreas), IGF-1 in Media, 0.1 nM antibody): 0%
percent growth inhibition ([2]; Panc-1 (Pancreas), IGF-1 in Media, 1 nM antibody): 0%
percent growth inhibition ([2]; Panc-1 (Pancreas), IGF-1 in Media, 10 nM antibody): 18%
percent growth inhibition ([2]; Panc-1 (Pancreas), IGF-1 in Media, 100 nM antibody): 60%
percent growth inhibition ([2]; Panc-1 (Pancreas), IGF-2 in Media, 0.1 nM antibody): 0%
percent growth inhibition ([2]; Panc-1 (Pancreas), IGF-2 in Media, 1 nM antibody): 12%
percent growth inhibition ([2]; Panc-1 (Pancreas), IGF-2 in Media, 10 nM antibody): 35%
percent growth inhibition ([2]; Panc-1 (Pancreas), IGF-2 in Media, 100 nM antibody): 62%
percent growth inhibition ([2]; SK-MES-1 (Lung), IGF-1 in Media, 0.1 nM antibody): −30%
percent growth inhibition ([2]; SK-MES-1 (Lung), IGF-1 in Media, 1 nM antibody): −15%
percent growth inhibition ([2]; SK-MES-1 (Lung), IGF-1 in Media, 10 nM antibody): 5%
percent growth inhibition ([2]; SK-MES-1 (Lung), IGF-1 in Media, 100 nM antibody): 46%
percent growth inhibition ([2]; SW620 (Colon), IGF-1 in Media, 0.1 nM antibody): 10%
percent growth inhibition ([2]; SW620 (Colon), IGF-1 in Media, 1 nM antibody): 12%
percent growth inhibition ([2]; SW620 (Colon), IGF-1 in Media, 10 nM antibody): 13%
percent growth inhibition ([2]; SW620 (Colon), IGF-1 in Media, 100 nM antibody): 27%
